# Data: the supplement of paper PMC8728848
# Some of the results follow.
# B1: GS13846A-bth-444-19-444 (Bacteroides thetaiotaomicron) (protein)
# chain: SCENEFDVSDKADSLISVTVNTLNNQAAYNVGETAQAELWIQRGGLKDASGKVQFVVDPLLLDSLNQEDKTNYELLPENCYEMTNTEFTVDKNELCGYITYHPEKILALSAYNETKYVLPLRLISNDLAINPARNTSFLAFTILEPIVHISNAGVYNINPDLTSTMDIQIGVPFTNKWDILCNLTEDLSLIDEYNQINKVNFTLLPENAYTAPESVTLQEGVSQITASYQLKNNLVPGNYILPIKIGSITASQGGVPNNSLVIDEESNVLFCIVKEGNKINKSGWEVIECSSEHAGNEATYMIDDNESTYWHCKFKNEAGSSVPPFHFIIDMKKEITIAQIDLLNRGDGAANNIKWVEFYASNNNSEWDKIGAGDFNDEGTRATFRYYVKSTKARYLKLIIPEGYGNNCPPAAIRELTVYGLEGNN
# Tests used:
# Assay in all cases: glycan array binding signal (z-score within array); higher = stronger binding
# Conditions in all cases: glycan notation: IUPAC condensed, linker removed
# [1] = target: Neu5Ac(a2-6)GlcNAc(b1-4)GlcNAc(b1-4)GlcNAc
# Procedure, shortened: (§1)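 Arrays were curated from the Consortium for Functional Glycomics database, 3228 in total, and kept only where the protein sequence was available. Binding is expressed as a within-array Z-score. This score was averaged across arrays of the same protein sequence at different concentrations or buffers and across linkers, and negative values can be read as non-binding.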
# Neu5Ac(a2-8)Neu5Ac = target: Neu5Ac(a2-8)Neu5Ac
# Procedure, shortened: as §1
# [2] = target: Neu5Ac(a2-8)Neu5Ac(a2-3)Gal(b1-3)GalNAc(b1-4)[Neu5Ac(a2-3)]Gal(b1-4)Glc
# Procedure, shortened: as §1
# [3] = target: Neu5Ac(a2-8)Neu5Ac(a2-3)Gal(b1-3)GalNAc(b1-4)[Neu5Ac(a2-8)Neu5Ac(a2-3)]Gal(b1-4)Glc
# Procedure, shortened: as §1
# [4] = target: Neu5Ac(a2-8)Neu5Ac(a2-3)Gal(b1-4)Glc
# Procedure, shortened: as §1
# [5] = target: Neu5Ac(a2-8)Neu5Ac(a2-3)Gal(b1-4)GlcNAc
# Procedure, shortened: as §1
# [6] = target: Neu5Ac(a2-8)Neu5Ac(a2-3)[Gal(b1-3)GalNAc(b1-4)]Gal(b1-4)Glc
# Procedure, shortened: as §1
# [7] = target: Neu5Ac(a2-8)Neu5Ac(a2-3)[GalNAc(b1-4)]Gal(b1-4)Glc
# Procedure, shortened: as §1
# [8] = target: Neu5Ac(a2-8)Neu5Ac(a2-8)Neu5Ac
# Procedure, shortened: as §1
# [9] = target: Neu5Ac(a2-8)Neu5Ac(a2-8)Neu5Ac(a2-3)Gal(b1-4)Glc
# Procedure, shortened: as §1
# [10] = target: Neu5Ac(a2-8)Neu5Ac(a2-8)Neu5Ac(a2-3)[Gal(b1-3)GalNAc(b1-4)]Gal(b1-4)Glc
# Procedure, shortened: as §1
# [11] = target: Neu5Ac(a2-8)Neu5Ac(a2-8)Neu5Ac(a2-3)[GalNAc(b1-4)]Gal(b1-4)Glc
# Procedure, shortened: as §1
# [12] = target: Neu5Ac(a2-8)Neu5Ac(a2-8)Neu5Ac(a2-8)Neu5Ac(a2-3)[GalNAc(b1-4)]Gal(b1-4)Glc
# Procedure, shortened: as §1
# [13] = target: Neu5Ac(a2-8)Neu5Gc(a2-3)Gal(b1-4)GlcNAc
# Procedure, shortened: as §1
# [14] = target: Neu5Ac(b2-6)Gal(b1-4)GlcNAc
# Procedure, shortened: as §1
# Neu5Ac(b2-6)GalNAc = target: Neu5Ac(b2-6)GalNAc
# Procedure, shortened: as §1
# [15] = target: Neu5Ac9Ac(a2-3)Gal(b1-3)GlcNAc
# Procedure, shortened: as §1
# [16] = target: Neu5Ac9Ac(a2-3)Gal(b1-4)GlcNAc
# Procedure, shortened: as §1
# [17] = target: Neu5Ac9Ac(a2-6)Gal(b1-4)GlcNAc
# Procedure, shortened: as §1
# [18] = target: Neu5Gc(a2-3)Gal(b1-3)GlcNAc
# Procedure, shortened: as §1
# [19] = target: Neu5Gc(a2-3)Gal(b1-3)[Fuc(a1-4)]GlcNAc
# Procedure, shortened: as §1
# Neu5Gc(a2-3)Gal(b1-4)Glc = target: Neu5Gc(a2-3)Gal(b1-4)Glc
# Procedure, shortened: as §1
# [20] = target: Neu5Gc(a2-3)Gal(b1-4)GlcNAc
# Procedure, shortened: as §1
# [21] = target: Neu5Gc(a2-3)Gal(b1-4)GlcNAc(b1-3)Gal(b1-4)GlcNAc(b1-2)Man(a1-3)[Neu5Gc(a2-3)Gal(b1-4)GlcNAc(b1-3)Gal(b1-4)GlcNAc(b1-2)Man(a1-6)]Man(b1-4)GlcNAc(b1-4)GlcNAc
# Procedure, shortened: as §1
# [22] = target: Neu5Gc(a2-3)Gal(b1-4)[Fuc(a1-3)]GlcNAc
# Procedure, shortened: as §1
# [23] = target: Neu5Gc(a2-6)Gal(b1-4)GlcNAc
# Procedure, shortened: as §1
# Neu5Gc(a2-6)GalNAc = target: Neu5Gc(a2-6)GalNAc
# Procedure, shortened: as §1
# [24] = target: Neu5Gc(a2-8)Neu5Ac(a2-3)Gal(b1-4)GlcNAc
# Procedure, shortened: as §1
# [25] = target: Neu5Gc(a2-8)Neu5Gc(a2-3)Gal(b1-4)GlcNAc
# Procedure, shortened: as §1
# [26] = target: Neu5Gc(a2-8)Neu5Gc(a2-3)Gal(b1-4)GlcNAc(b1-3)Gal(b1-4)GlcNAc
# Procedure, shortened: as §1
# [27] = target: Neu5Gc(a2-8)Neu5Gc(a2-6)Gal(b1-4)GlcNAc
# Procedure, shortened: as §1
# [28] = target: Neu5Gc(b2-6)Gal(b1-4)GlcNAc
# Procedure, shortened: as §1
binder,measurement,setting,value
B1,glycan array binding signal (z-score),[1],-0.059
same,glycan array binding signal (z-score),Neu5Ac(a2-8)Neu5Ac,-0.237
same,glycan array binding signal (z-score),[2],-0.371
same,glycan array binding signal (z-score),[3],-0.149
same,glycan array binding signal (z-score),[4],-0.443
same,glycan array binding signal (z-score),[5],-0.36
same,glycan array binding signal (z-score),[6],-0.35
same,glycan array binding signal (z-score),[7],-0.236
same,glycan array binding signal (z-score),[8],-0.236
same,glycan array binding signal (z-score),[9],-0.358
same,glycan array binding signal (z-score),[10],-0.173
same,glycan array binding signal (z-score),[11],-0.444
same,glycan array binding signal (z-score),[12],-0.276
same,glycan array binding signal (z-score),[13],-0.233
same,glycan array binding signal (z-score),[14],-0.298
same,glycan array binding signal (z-score),Neu5Ac(b2-6)GalNAc,-0.132
same,glycan array binding signal (z-score),[15],-0.173
same,glycan array binding signal (z-score),[16],-0.195
same,glycan array binding signal (z-score),[17],-0.092
same,glycan array binding signal (z-score),[18],-0.14
same,glycan array binding signal (z-score),[19],0.04
same,glycan array binding signal (z-score),Neu5Gc(a2-3)Gal(b1-4)Glc,-0.111
same,glycan array binding signal (z-score),[20],-0.104
same,glycan array binding signal (z-score),[21],-0.52
same,glycan array binding signal (z-score),[22],-0.428
same,glycan array binding signal (z-score),[23],0.024
same,glycan array binding signal (z-score),Neu5Gc(a2-6)GalNAc,-0.322
same,glycan array binding signal (z-score),[24],-0.419
same,glycan array binding signal (z-score),[25],-0.385
same,glycan array binding signal (z-score),[26],-0.325
same,glycan array binding signal (z-score),[27],-0.262
same,glycan array binding signal (z-score),[28],-0.035
